Test results published in PubChem BioAssay AID1963576 (National Center for Advancing Translational Sciences (NCATS), 2024).
About 60 (0.1%) of roughly 46,000 compounds were called active. Inconclusive results (about 3%) are left out. Calls come from the whole dose curve; as a rule, active = well fitted inhibition curve with a large enough effect; inconclusive = small, poorly fitted or top-dose-only effect; inactive = no such curve, though single readings can be large or run the other way. The list shows a part of the results.

Assay: Primary qHTS assay for Inhibitors of ovarian cancer metastasis using an organotypic tumor microenvironment (TME) model.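 For Potency: count of GFP cancer cells still attached after washing and fixation.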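 For activity change, negative = inhibition: plate controls were DMSO wells for no effect and tomatine positive control wells for full effect.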 Note: nearly all actives have a fitted effect of over 65% in size.
Conditions: SKOV3ip1-GFP adhesion/invasion on 3D omental model, fluorescence; series mostly up to 45.8 µM; activity change, negative = inhibition: at the top concentration
In short: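 Primary human omental fibroblast/mesothelial 3D culture pre-formed 48 h. SKOV3ip1-GFP cells added with compounds (0.36-46 umol/L), incubated 2 h RT/16 h 37 C, fixed; GFP cells quantified at 488/509 nm.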
Potency is the fitted concentration of half-maximal effect.

| Structure (SMILES) | outcome | activity change, negative = inhibition | Potency |
| --- | --- | --- | --- |
| CCOC(=O)c1c(S(=O)(=O)N2CCC(C(=O)NCc3cccc(C)c3)CC2)c(C)n(C)c1C | inactive | – | – |
| COc1ccc(Cn2c(=O)n(-c3ccc(F)c(Cl)c3)c(=O)c3c2c2cc(OC)ccc2n3C)cc1 | inactive | – | – |
| COc1ccccc1NC(=O)CSc1nc(O)c(C/C=C/c2ccccc2)c(=O)[nH]1 | – | inactive: -0.243% | – |
| CCc1nnc(NC(=O)CSc2nccn2Cc2ccc(C)cc2)s1 | – | inactive: -5.13% | – |
| COc1ccc(CNC(=O)c2nc(SCc3ccc(C)cc3)ncc2Cl)cc1 | – | inactive: -15.9% | – |
| CCCCc1ccc(NC(=O)c2cc(-c3ccc(C)c(F)c3)on2)cc1 | – | inactive: -1.88% | – |
| Cc1ccc(NC(=O)CN2C(=O)CCc3ccccc32)cc1C | – | inactive: -11.4% | – |
| Cc1ccc(OCc2nc(-c3ccc(C(=O)NCCc4ccc(Cl)cc4)cc3)oc2C)cc1 | inactive | – | – |
| CCc1nn(CC(=O)N2CCN(c3cccc(OC)c3)CC2)c(=O)c2cc3occc3n12 | inactive | – | – |
| COc1ccc(N2CCN(Cc3nc4c(c(=O)[nH]c(=O)n4C)n3Cc3ccc(C)cc3)CC2)cc1 | – | inactive: 3.01% | – |
| COc1ccc(N(CC(=O)NC(C)c2ccccc2)S(=O)(=O)c2c(C)nn(C)c2C)cc1 (stereo unspecified) | – | inactive: 6.19% | – |
| CCOC(=O)c1c(C)[nH]c(C)c1S(=O)(=O)N1CCCC(C(=O)N2CCN(c3ccccc3F)CC2)C1 (stereo unspecified) | – | inactive: -1.82% | – |
| CC(C)Nc1ccc(-c2nc(-c3ccncc3)no2)cc1[N+](=O)[O-] | inactive | – | – |
| COc1ccc(C2=C(Nc3ccc(Br)c(C)c3)c3ccccc3C2=O)cc1 | – | inactive: -25.4% | – |
| COc1ccc(NC(=O)c2nn(C)c3c2CS(=O)(=O)c2ccccc2-3)cc1Cl | – | inactive: 0.163% | – |
| CC1CCN(CC2CCN(C(=O)NCc3ccc(F)cc3)CC2)CC1 | – | inactive: 5.51% | – |
| O=C(O)c1ccc(Cn2cnc3cccnc32)cc1 | inactive | – | – |
| COc1ccc(S(=O)(=O)c2cnc3cc(OC)c(OC)cc3c2N2CCCC(C)C2)cc1 (stereo unspecified) | – | inactive: 4.04% | – |
| CC1CN(C(=O)CCC(=O)NCc2cccc(Cl)c2)c2ccccc2S1 (stereo unspecified) | – | inactive: 4.05% | – |
| CCOc1ccc(-c2cn3c(n2)sc2cc(C(=O)NCCc4ccc(OC)cc4OC)ccc23)cc1 | inactive | – | – |
| O=S(=O)(NCCc1csc2nc(-c3ccccc3)nn12)c1cccs1 | – | inactive: -4.69% | – |

| Structure (SMILES) | outcome | activity change, negative = inhibition | Potency |
| --- | --- | --- | --- |
| CC(C)CCOc1ccc(C2N=C(N)Nc3nc4ccccc4n32)cc1 (stereo unspecified) | – | – | active: 12.6 µM |
| CCc1nc(-c2cc(S(=O)(=O)N3CCN(c4ccc(OC)cc4)CC3)ccc2OC)no1 | – | inactive: -2.16% | – |
| CCc1ccc(OCc2nc(-c3ccc(-n4cccc4)cc3)no2)cc1 | – | inactive: 0.319% | – |
| Cc1nn(C(C)C(=O)NC2CCC(C)CC2)c(=O)c2c1sc1ccccc12 (stereo unspecified) | inactive | – | – |
| C=CC(=O)Nc1ccc2ncnc(Nc3ccc(OCc4cccc(F)c4)c(Cl)c3)c2c1 | – | inactive: -28.5% | – |
| Cc1ccc(/C=C/c2onc(C)c2S(=O)(=O)N2CCC(C(=O)N3CCN(c4cccc(C)c4)C(C)C3)CC2)cc1 (stereo unspecified) | inactive | – | – |
| CCOc1ccc(C2C(C(=O)Nc3ccccc3)=C(C)Nc3nc(SCc4cccc(OC)c4)nn32)cc1 (stereo unspecified) | – | inactive: -16.7% | – |
| Cc1ccc(NC(=O)CCc2c(C)nn(-c3ccc(N4CCOCC4)nn3)c2C)c(C)c1 | inactive | – | – |
| O=C(COc1ccccc1Cl)Nc1nnc(S(=O)(=O)N2CCCC2)s1 | – | inactive: -8.74% | – |
| COc1ccc(-n2nc3ccc(NC(=O)c4ccc(C#N)cc4F)cc3n2)cc1Cl | – | inactive: 14.1% | – |
| CCCCN(CC)C(=O)CSc1nc2n[nH]c(C)c2c(=N)n1-c1cccc(C)c1 | – | inactive: 5.62% | – |
| CCOc1ccccc1NC(=O)C(CC(C)C)NC(=O)C1CCC(C)CC1 (stereo unspecified) | – | inactive: 0.731% | – |
| COc1cccc2c1cc1c(=O)n(CC(=O)N3CCN(c4cccc(C(F)(F)F)c4)CC3)nc(C)n12 | inactive | – | – |
| CCOc1ccc(NC2SC(=O)N(Cc3ccccc3)C2=O)cc1 (stereo unspecified) | – | inactive: -8.1% | – |
| COc1cccc2sc(NC(=O)CS(=O)(=O)c3ccc(C)cc3)nc12 | inactive | – | – |
| O=c1[nH]c(=O)n([C@H]2C[C@@H](O)[C@@H](CO)O2)cc1C(F)(F)F | – | inactive: -1.91% | – |
| O=C(O)Cn1c(-c2cccs2)cc2cc(Cl)ccc21 | – | inactive: -9.39% | – |
| O=C(Nc1cccc(C(F)(F)F)c1)c1cc(-c2ccc(Cl)s2)nc2ccccc12 | – | inactive: -13.8% | – |
| O=C(Nc1cccs1)Nc1ccc(F)cc1F | – | inactive: 21.9% | – |
| COc1cccc(COC(=O)c2ccc(-c3nnn(Cc4cccc(OC)c4)n3)cc2)c1 | inactive | – | – |
| COc1ccc(Cn2c(CO)cnc2SCC(=O)Nc2ccc3c(c2)OCCO3)cc1 | – | inactive: 17.3% | – |

| Structure (SMILES) | outcome | activity change, negative = inhibition | Potency |
| --- | --- | --- | --- |
| CC(=O)N1CCc2c(sc3c2c(=O)n(-c2ccc(F)cc2)c(=O)n3Cc2ccc(C#N)cc2)C1 | – | inactive: 1.84% | – |
| CC1CCc2c(sc3nnn(Cc4cccc(C(=O)OC(C)C)c4)c(=O)c23)C1 (stereo unspecified) | – | inactive: -3.43% | – |
| Cc1ccc(S(=O)(=O)n2nc(-c3ccc(Cl)cc3)nc2NCc2ccccc2)cc1 | inactive | – | – |
| COCCn1ccc2c(OCC(=O)Nc3c(C)cc(C)cc3C)cccc2c1=O | – | inactive: 6.37% | – |
| CCCSc1oc(-c2ccco2)nc1S(=O)(=O)c1ccc(Br)cc1 | – | inactive: -1.2% | – |
| COCCCNC(=O)Cn1nc(N2CCN(c3ccccc3)CC2)ccc1=O | – | inactive: -12.6% | – |
| Cn1c(-n2cccc2)c(-c2c(-c3ccc(F)cc3)[nH]c3c2c(=O)n(C)c(=O)n3C)c(=O)n(C)c1=O | – | inactive: 0.682% | – |
| COc1ccc(-n2ccnc(NCc3cccs3)c2=O)cc1OC | inactive | – | – |
| COc1ccc(CC(=O)Nc2cc(-c3cn4cccnc4n3)ccc2C)cc1OC | – | inactive: 5.2% | – |
| CC1=C(c2ccc(C(C)C)cc2)S(=O)(=O)N=C1N1CCC(C(=O)NCc2ccccc2)CC1 | – | inactive: 1.91% | – |
| CCOc1ccccc1CNC(=O)C1CCN(S(=O)(=O)c2c(C)noc2/C=C/c2ccccc2F)CC1 | – | inactive: 15.7% | – |
| CCn1c(C(=O)NCc2ccccc2OC)cc2sccc21 | – | inactive: 6.74% | – |
| COc1cccc(CNS(=O)(=O)c2cc(Br)cc3c2N(C(C)=O)C(C)C3)c1 (stereo unspecified) | – | inactive: -3.38% | – |
| O=C(CSCc1cnn(-c2ccccc2)c1-n1cccc1)NCc1ccccc1F | – | inactive: 9.4% | – |
| CCCN1CCN(c2ncnc3sc(C(=O)Nc4ccc(N(CC)CC)cc4C)c(C)c23)CC1 | – | inactive: -25.4% | – |
| CCCOC(=O)C(C)n1nnc2sc(-c3ccccc3)cc2c1=O (stereo unspecified) | inactive | – | – |
| Cc1ccn2c(Nc3ccc4c(c3)OCO4)c(-c3ccc(O)cc3)nc2c1 | – | inactive: -31.3% | – |
| CCCCOc1ccc(S(=O)(=O)n2nc(C)c(S(=O)(=O)N3CCC(C)CC3)c2C)cc1 | – | inactive: 56.4% | – |
| O=C(Nc1ccccc1)Nc1ccc(-c2ccc(C(=O)[C@H]3CCC[C@H]3C(=O)O)cc2)cc1 | – | inactive: -6.58% | – |
